# Laboratory results: the supplement of paper PMC10338343
# ± gives the standard deviation. The entries are a selection whose mix differs from that of the whole data set.
# System: MIWI (PIWIL1) piRISC loaded with L1MC piRNA (30 nt)
# Assay: pre-steady-state target cleavage rate (min^-1); MIWI and MILI are mouse PIWI proteins and EfPiwi is from a freshwater sponge; tags in brackets are library labels; higher = faster piRNA-guided slicing of the target
# Conditions: guide: L1MC piRNA 5'p-UAACUAAAUACUAUGCAAGCUGUAGGUCCU; auxiliary factor: 500 nM mouse GTSF1
# Method: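 Cleave-'n-Seq: a library of target RNAs (target site embedded in constant flanks, ACAGCATTCCGCGTTAGTGATATCCG... 5' flank; DNA-blocked outside the site) at 0.1 nM was incubated with 1 nM active mouse MILI or MIWI piRISC (synthetic 5'-monophosphorylated piRNA guide) with or without 500 nM mouse GTSF1 at 33 °C for 1 min to 16 h. Uncleaved targets were sequenced and normalised to non-target controls, and the pooled three trials were fitted to a burst-and-steady-state model to give the pre-steady-state cleavage rate (min^-1; k3 is constrained to at most 1e-4). Sequence is the target site only; target names encode pairing extent (gX:gY) and contiguous / 1-mismatch / 2-mismatch / bulge geometry. Fits with R² ≤ 0 are excluded.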
row,Sequence,pre-steady-state target cleavage rate
1,AGGACCAACAGCUUGCAUAGUAUUUACUUA,0.29 ± 0.027
2,UCGACCUACAGCUUGCAUAGUAGUUUAGUUA,0.574 ± 0.031
3,UCCUGGAUGAGCUUGCAUAGUAAUAAGUUA,0.00942 ± 0.0042
4,UGGACCUACUGCUUGCAUAGUAUUUUGUUA,0.808 ± 0.046
5,UCCUGGAACAGCUUCCAUAGUUUUUAGUUA,0.00871 ± 0.0042
6,UGGACCUACAGCUAGCAUAGUAUUUUCAAA,0.239 ± 0.038
7,UCCUGGAUCAGCUUCCAUAGUUUUUAGUUA,0.00762 ± 0.0043
8,UCCUGGAUCAGCUUGCUUAGUAUUUACAAA,0.113 ± 0.028
9,UCCUGGAUCAGCUUGCAUAGUAUUUCAGUUA,0.49 ± 0.06
10,AGGACCUACAGCUUGCAUAGAAUUUAGUAA,0.556 ± 0.062
11,UCCUGCUACAGCUUGGAUAGUUUUUAGUUA,0.277 ± 0.033
12,UCCUGCUACUGCAUGCAUAGUAUUUAGUUA,1.02 ± 0.077
13,UGGACCUACAGCAUGCAUAGUAUUUAGAAA,0.5 ± 0.061
14,UCCUGGAUCAGCUUGCAUAGUAUUUUGUAA,0.269 ± 0.034
15,UCGACCUACAGCUUGCUUAGUUUUUAGUUA,0.208 ± 0.016
16,UCCUGGAUGUCGAUCGCAUAGUAUUUAGUUA,0.00822 ± 0.0034
17,UCCUGGUACAGCUUGCAUAGUUUUUAGAUA,0.136 ± 0.043
18,UCCACCUAGAGCUUGCAUAGUAUUUAGUAA,0.438 ± 0.066
19,UCCUCCUACAGCUUGCAUAGUAUUUAGUA,0.442 ± 0.034
20,UCCACCAACAGGUUGCAUAGUAUUUAGUUA,0.838 ± 0.052
21,AGGACCUACACCUUGCAUAGAAUUUAGUUA,0.511 ± 0.082
22,UCCUGGAACAGGUUGCAUAGAAUUUAGUUA,0.342 ± 0.025
23,UCCUGGAUGUGGUUGCAUAGUAUUUUGUUA,0.0123 ± 0.0062

# Same assay, conditions: guide: L1MC piRNA 5'p-UAACUAAAUACUAUGCAAGCUGUAGGUCCU; auxiliary factor: none (no GTSF1)
row,Sequence,pre-steady-state target cleavage rate
1,AGGACCAACAGCUUGCAUAGUAUUUACUUA,0.0456 ± 0.0073
2,UCGACCUACAGCUUGCAUAGUAGUUUAGUUA,0.0134 ± 0.0039
3,UGGACCUACUGCUUGCAUAGUAUUUUGUUA,0.0544 ± 0.01
4,UCCUGGAUCAGCUUGCAUAGUAUUUCAGUUA,0.00928 ± 0.0025
5,AGGACCUACAGCUUGCAUAGAAUUUAGUAA,0.0293 ± 0.0094
6,UCCUGGAUGUCGAACGUAAGUAAUAAGUUA,< 0.0001
7,UCCUGCUACAGCUUGGAUAGUUUUUAGUUA,0.0227 ± 0.0053
8,UCCUGCUACUGCAUGCAUAGUAUUUAGUUA,0.0216 ± 0.0045
9,UGGACCUACAGCAUGCAUAGUAUUUAGAAA,0.00651 ± 0.0026
10,UCCUGGAUCAGCUUGCAUAGUAUUUUGUAA,0.0158 ± 0.0054
11,UCGACCUACAGCUUGCUUAGUUUUUAGUUA,0.0151 ± 0.0026
12,UCCUGGUACAGCUUGCAUAGUUUUUAGAUA,0.00988 ± 0.0027
13,UCCACCUAGAGCUUGCAUAGUAUUUAGUAA,0.0167 ± 0.0028
14,UCCUCCUACAGCUUGCAUAGUAUUUAGUA,0.00753 ± 0.0027
15,UCCACCAACAGGUUGCAUAGUAUUUAGUUA,0.0297 ± 0.0047
16,AGGACCUACACCUUGCAUAGAAUUUAGUUA,0.0182 ± 0.0059
17,UCCUGGAACAGGUUGCAUAGAAUUUAGUUA,0.0148 ± 0.0049
18,UCCUGGAUGUGGUUGCAUAGUAUUUUGUUA,0.00513 ± 0.0033
